Measurements from PMC9377714, “Unconventional tonicity-regulated nuclear trafficking of NFAT5 mediated by KPNB1, XPOT and RUVBL2” (Journal of Cell Science, 2022).
Where two headings read alike, the source gives them in different places. These are yes or no findings as the source states them, for the method shown. For some of these results: Binding seen in cells or lysates may run through a third protein. Some results given as binding are weak or reduced against the parent protein; the word gives no strength. For some of these results: Where a sequence is shown, tags or fusion partners need not be part of it. Blank lines part the entries; values can stand above or below the molecule they belong to.

Protein sequences, listed by entry. Tags and fused reporters are not part of them.
UniProt Q14974: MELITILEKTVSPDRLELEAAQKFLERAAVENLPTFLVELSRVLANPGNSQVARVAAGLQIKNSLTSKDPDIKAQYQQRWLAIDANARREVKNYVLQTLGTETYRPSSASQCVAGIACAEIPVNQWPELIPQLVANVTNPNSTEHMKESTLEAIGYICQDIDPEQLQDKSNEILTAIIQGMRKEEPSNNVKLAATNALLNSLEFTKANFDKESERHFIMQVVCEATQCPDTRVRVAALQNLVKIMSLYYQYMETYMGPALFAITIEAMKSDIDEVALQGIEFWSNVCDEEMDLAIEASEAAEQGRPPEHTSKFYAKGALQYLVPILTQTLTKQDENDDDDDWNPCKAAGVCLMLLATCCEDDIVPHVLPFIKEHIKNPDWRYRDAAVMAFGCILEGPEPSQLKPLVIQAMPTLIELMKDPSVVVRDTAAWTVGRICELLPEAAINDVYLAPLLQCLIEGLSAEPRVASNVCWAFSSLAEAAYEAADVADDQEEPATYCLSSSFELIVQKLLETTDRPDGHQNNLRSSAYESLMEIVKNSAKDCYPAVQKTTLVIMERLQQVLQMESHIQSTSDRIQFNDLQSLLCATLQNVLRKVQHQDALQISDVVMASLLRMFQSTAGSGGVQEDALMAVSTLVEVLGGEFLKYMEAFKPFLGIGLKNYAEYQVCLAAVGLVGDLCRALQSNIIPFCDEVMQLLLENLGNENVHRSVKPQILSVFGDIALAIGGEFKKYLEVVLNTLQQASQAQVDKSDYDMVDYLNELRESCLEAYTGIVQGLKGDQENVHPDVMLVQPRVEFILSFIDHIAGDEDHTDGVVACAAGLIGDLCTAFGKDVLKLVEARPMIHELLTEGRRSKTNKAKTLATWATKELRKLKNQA

Key:
FLAG–NFAT5_(132–581) [1] = biological target: T1, FLAG–NFAT5_(132–581) (UniProt O94916); assay: co-IP; anti-FLAG affinity resin or FLAG antibodies on extracts of HeLa cells expressing FLAG–NFAT5 constructs, western blot for endogenous proteins; lysis buffer 50 mM Tris-HCl pH 7.8, 100 mM NaCl, 1 mM EDTA, 1% Triton X-100; in Fig. 6C cells treated with hypotonic, isotonic or hypertonic medium
T1 sequence: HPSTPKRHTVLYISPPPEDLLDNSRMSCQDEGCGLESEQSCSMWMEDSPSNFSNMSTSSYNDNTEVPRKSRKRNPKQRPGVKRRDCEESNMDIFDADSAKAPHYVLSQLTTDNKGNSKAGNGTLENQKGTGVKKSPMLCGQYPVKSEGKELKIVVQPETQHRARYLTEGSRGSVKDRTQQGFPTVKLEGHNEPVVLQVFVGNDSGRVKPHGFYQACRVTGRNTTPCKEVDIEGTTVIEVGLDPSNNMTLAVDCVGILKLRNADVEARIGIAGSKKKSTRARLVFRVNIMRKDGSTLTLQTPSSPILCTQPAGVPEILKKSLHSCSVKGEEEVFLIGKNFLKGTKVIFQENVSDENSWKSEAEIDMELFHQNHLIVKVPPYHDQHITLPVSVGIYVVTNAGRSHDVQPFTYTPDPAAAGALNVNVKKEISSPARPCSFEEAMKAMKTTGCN

[2] = biological target: Nuclear factor of activated T-cells 5 (NFAT5), endogenous (human (endogenous in HeLa)) (UniProt O94916); assay: co-IP; immunoprecipitation with NFAT5 antibodies from HeLa cell extracts, western blot with the indicated antibodies; IgG control; in Fig. 6D cells treated with hypotonic, isotonic or hypertonic medium
[3] = biological target: karyopherin β1 (KPNB1), endogenous (human (endogenous in HeLa)) (UniProt Q14974); assay: co-IP; immunoprecipitation with anti-KPNB1 antibodies from HeLa lysate, western blot with NFAT5 and KPNB1 antibodies; IgG-only control
FLAG–NFAT5_(132–581) [4] = biological target: T1, FLAG–NFAT5_(132–581); assay: co-IP; anti-FLAG affinity resin or FLAG antibodies on extracts of HeLa cells expressing FLAG–NFAT5 constructs, western blot for endogenous proteins; lysis buffer 50 mM Tris-HCl pH 7.8, 100 mM NaCl, 1 mM EDTA, 1% Triton X-100; in Fig. 6C cells treated with hypotonic, isotonic or hypertonic medium; remark: listed apart in the source
His–KPNB1 = biological target: T2, His–KPNB1 (UniProt Q14974 1-876); assay: pull-down; His–KPNB1 immobilised on Ni-NTA agarose, GST fusion proteins added, 4°C overnight; washes with 20 mM sodium phosphate, 100 mM NaCl, 40 mM imidazole, 10% glycerol; SDS–PAGE and Coomassie Blue; both purified
T2 construct: KPNB1 (karyopherin β1, importin β1), full length, in a modified pET 30a vector; In the pull-down it was held on Ni-NTA by the His tag; also called full-length KPNB1; source: E. coli BL21 (DE3), purified (HisTrap HP)

binding (FLAG–NFAT5_(132–581) [1]): binds
Molecule: karyopherin β1 (KPNB1), endogenous (from UniProt Q14974 1-876)

binding [2]: binds
Molecule: inosine-5'-monophosphate dehydrogenase 2 (IMPDH2), endogenous (from UniProt P12268 1-514)

binding [3]: binds
Molecule: Nuclear factor of activated T-cells 5 (NFAT5), endogenous (from UniProt O94916 1-1531)

binding (FLAG–NFAT5_(132–581) [4]): no binding
B1: exportin-T (XPOT), endogenous (protein, UniProt O43592 1-962)
chain: MDEQALLGLNPNADSDFRQRALAYFEQLKISPDAWQVCAEALAQRTYSDDHVKFFCFQVLEHQVKYKYSELTTVQQQLIRETLISWLQAQMLNPQPEKTFIRNKAAQVFALLFVTEYLTKWPKFFFDILSVVDLNPRGVDLYLRILMAIDSELVDRDVVHTSEEARRNTLIKDTMREQCIPNLVESWYQILQNYQFTNSEVTCQCLEVVGAYVSWIDLSLIANDRFINMLLGHMSIEVLREEACDCLFEVVNKGMDPVDKMKLVESLCQVLQSAGFFSIDQEEDVDFLARFSKLVNGMGQSLIVSWSKLIKNGDIKNAQEALQAIETKVALMLQLLIHEDDDISSNIIGFCYDYLHILKQLTVLSDQQKANVEAIMLAVMKKLTYDEEYNFENEGEDEAMFVEYRKQLKLLLDRLAQVSPELLLASVRRVFSSTLQNWQTTRFMEVEVAIRLLYMLAEALPVSHGAHFSGDVSKASALQDMMRTLVTSGVSSYQHTSVTLEFFETVVRYEKFFTVEPQHIPCVLMAFLDHRGLRHSSAKVRSRTAYLFSRFVKSLNKQMNPFIEDILNRIQDLLELSPPENGHQSLLSSDDQLFIYETAGVLIVNSEYPAERKQALMRNLLTPLMEKFKILLEKLMLAQDEERQASLADCLNHAVGFASRTSKAFSNKQTVKQCGCSEVYLDCLQTFLPALSCPLQKDILRSGVRTFLHRMIICLEEEVLPFIPSASEHMLKDCEAKDLQEFIPLINQITAKFKIQVSPFLQQMFMPLLHAIFEVLLRPAEENDQSAALEKQMLRRSYFAFLQTVTGSGMSEVIANQGAENVERVLVTVIQGAVEYPDPIAQKTCFIILSKLVELWGGKDGPVGFADFVYKHIVPACFLAPLKQTFDLADAQTVLALSECAVTLKTIHLKRGPECVQYLQQEYLPSLQVAPEIIQEFCQALQQPDAKVFKNYLKVFFQRAKP

binding [2]: no binding
B2: adenine nucleotide translocator 3 (SLC25A6), endogenous (protein, UniProt P12236 1-298)
chain: MTEQAISFAKDFLAGGIAAAISKTAVAPIERVKLLLQVQHASKQIAADKQYKGIVDCIVRIPKEQGVLSFWRGNLANVIRYFPTQALNFAFKDKYKQIFLGGVDKHTQFWRYFAGNLASGGAAGATSLCFVYPLDFARTRLAADVGKSGTEREFRGLGDCLVKITKSDGIRGLYQGFSVSVQGIIIYRAAYFGVYDTAKGMLPDPKNTHIVVSWMIAQTVTAVAGVVSYPFDTVRRRMMMQSGRKGADIMYTGTVDCWRKIFRDEGGKAFFKGAWSNVLRGMGGAFVLVLYDELKKVI

binding (His–KPNB1): binds weakly
B3: GST–NFAT5_(171–250(AA)) (domain or fragment, UniProt O94916 171-250)
chain: SCSMWMEDSPSNFSNMSTSSYNDNTEVPRKSAARNPKQRPGVKRRDCEESNMDIFDADSAKAPHYVLSQLTTDNKGNSKA

binding (His–KPNB1): binds weakly
Molecule: SNMDIFDADSAKAPHYVLSQLTTDNKGNSKA (domain or fragment, UniProt O94916 220-250) [GST–NFAT5_(220–250)]
